# From the supplement of paper PMC7826260
# Some of the results follow. Viral Rep nickase domains cut single-stranded DNA in vitro at 3 µM enzyme and 37 °C for 1 h; the strands have 90 letters, of which the middle is given. Uncut reads are compared with the no-enzyme pool on a log2 scale; uncut sequences lie near 0, cut ones below; no hit call is given. Reads are scaled to the total; uncut strands gain when others are lost, and binding without cutting may add a little.
# How the values were obtained:
# Assay in all cases: uncleaved DNA left, log2 of reads against the no-enzyme library (log2 ratio); higher = less cleavage (more negative = more Rep cleavage of the k-mer); sequences stand for … in CTCGTCCG…ACCGGAGA
# [1] = tested on: T1, Rep nickase domain of Muscovy duck circovirus
# T1 sequence (residues 1-111 of Rep, tag left off): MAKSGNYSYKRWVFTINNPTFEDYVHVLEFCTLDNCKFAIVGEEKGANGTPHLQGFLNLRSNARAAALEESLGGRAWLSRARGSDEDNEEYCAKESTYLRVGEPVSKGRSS
# Procedure: (§1)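 A pool of 90-nt single-stranded DNAs with seven random bases just before the constant AC of the nick site (name = the seven bases) was cut by 3 µM recombinant His6-SUMO-tagged Rep nickase domain (300 nM DNA, 50 mM HEPES pH 8.0, 50 mM NaCl, 1 mM MnCl2, 1 h, 37 °C, three replicates). Uncut DNA was amplified and sequenced.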
# [2] = tested on: T2, Rep nickase domain of banana bunchy top virus
# T2 sequence (residues 1-94 of Rep, tag left off): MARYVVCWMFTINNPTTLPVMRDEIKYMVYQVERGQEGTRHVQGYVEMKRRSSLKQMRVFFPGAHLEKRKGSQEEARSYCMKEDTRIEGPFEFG
# Procedure: as §1
# [3] = tested on: T3, Rep nickase domain of cabbage leaf curl virus
# T3 sequence (residues 1-116 of Rep, tag left off): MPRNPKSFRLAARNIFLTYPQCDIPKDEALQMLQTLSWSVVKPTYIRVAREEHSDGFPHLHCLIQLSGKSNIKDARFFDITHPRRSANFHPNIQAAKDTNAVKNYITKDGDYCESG
# Procedure: as §1
# [4] = tested on: T4, Rep nickase domain of chickpea chlorotic dwarf virus
# T4 sequence (residues 1-124 of Rep, tag left off): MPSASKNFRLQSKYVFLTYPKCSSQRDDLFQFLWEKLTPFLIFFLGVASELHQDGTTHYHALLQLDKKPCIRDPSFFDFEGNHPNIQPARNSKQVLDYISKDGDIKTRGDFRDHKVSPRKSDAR
# Procedure: as §1
# [5] = tested on: T5, Rep nickase domain of faba bean necrotic yellows virus
# T5 sequence (residues 1-98 of Rep, tag left off): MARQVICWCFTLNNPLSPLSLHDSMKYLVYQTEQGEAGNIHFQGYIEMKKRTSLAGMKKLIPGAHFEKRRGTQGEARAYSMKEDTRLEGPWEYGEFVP
# Procedure: as §1
# [6] = tested on: T6, Rep nickase domain of maize striate mosaic virus
# T6 sequence (residues 1-117 of Rep, tag left off): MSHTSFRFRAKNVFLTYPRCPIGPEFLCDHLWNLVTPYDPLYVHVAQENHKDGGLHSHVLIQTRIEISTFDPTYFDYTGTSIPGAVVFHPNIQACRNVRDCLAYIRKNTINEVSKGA
# Procedure: as §1
# [7] = tested on: T7, Rep nickase domain of porcine circovirus 2
# T7 sequence (residues 2-116 of Rep, tag left off): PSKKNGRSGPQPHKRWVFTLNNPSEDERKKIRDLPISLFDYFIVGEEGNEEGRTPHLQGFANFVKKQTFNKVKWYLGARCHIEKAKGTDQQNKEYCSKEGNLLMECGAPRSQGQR
# Procedure: as §1
# [8] = tested on: T8, Rep nickase domain of tomato golden mosaic virus
# T8 sequence (residues 1-124 of Rep, tag left off): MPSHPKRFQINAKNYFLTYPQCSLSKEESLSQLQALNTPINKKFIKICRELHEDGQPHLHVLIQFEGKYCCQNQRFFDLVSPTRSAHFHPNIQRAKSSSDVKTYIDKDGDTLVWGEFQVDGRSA
# Procedure: as §1
# [9] = tested on: T9, Rep nickase domain of tomato yellow leaf curl virus
# T9 sequence (residues 1-136 of Rep, tag left off): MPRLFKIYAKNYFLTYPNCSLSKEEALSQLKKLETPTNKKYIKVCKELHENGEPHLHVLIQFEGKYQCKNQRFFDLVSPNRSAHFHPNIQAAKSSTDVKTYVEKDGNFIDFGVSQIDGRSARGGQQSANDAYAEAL
# Procedure: as §1
# [10] = tested on: T10, Rep nickase domain of wheat dwarf virus
# T10 sequence (residues 1-137 of Rep, tag left off): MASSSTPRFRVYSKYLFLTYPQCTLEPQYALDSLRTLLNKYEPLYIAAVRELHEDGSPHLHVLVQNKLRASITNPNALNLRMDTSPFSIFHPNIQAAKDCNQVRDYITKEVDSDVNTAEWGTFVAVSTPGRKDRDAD
# Procedure: as §1
sequence,measurement,setting,value
TCACTGG,uncleaved DNA left (log2),[1],-0.00135
same,uncleaved DNA left (log2),[2],-0.0744
same,uncleaved DNA left (log2),[3],0.0277
same,uncleaved DNA left (log2),[4],0.552
same,uncleaved DNA left (log2),[5],-0.145
same,uncleaved DNA left (log2),[6],0.249
same,uncleaved DNA left (log2),[7],0.0405
same,uncleaved DNA left (log2),[8],-0.0447
same,uncleaved DNA left (log2),[9],-0.0747
same,uncleaved DNA left (log2),[10],-0.0467
TTATGAG,uncleaved DNA left (log2),[1],-0.0179
same,uncleaved DNA left (log2),[2],-0.17
same,uncleaved DNA left (log2),[3],-0.873
same,uncleaved DNA left (log2),[4],-0.473
same,uncleaved DNA left (log2),[5],-0.0837
same,uncleaved DNA left (log2),[6],-1.1
same,uncleaved DNA left (log2),[7],0.0935
same,uncleaved DNA left (log2),[8],-0.133
same,uncleaved DNA left (log2),[9],-0.12
same,uncleaved DNA left (log2),[10],-0.124
GGATTGG,uncleaved DNA left (log2),[1],-0.0751
same,uncleaved DNA left (log2),[2],-0.0324
same,uncleaved DNA left (log2),[3],-0.288
same,uncleaved DNA left (log2),[4],-0.204
same,uncleaved DNA left (log2),[5],0.00747
same,uncleaved DNA left (log2),[6],-0.7
same,uncleaved DNA left (log2),[7],-0.00735
same,uncleaved DNA left (log2),[8],-0.143
same,uncleaved DNA left (log2),[9],-0.0592
same,uncleaved DNA left (log2),[10],-0.144
GTAAGGA,uncleaved DNA left (log2),[1],0.0709
same,uncleaved DNA left (log2),[2],0.0653
same,uncleaved DNA left (log2),[3],0.202
same,uncleaved DNA left (log2),[4],0.327
same,uncleaved DNA left (log2),[5],0.0562
same,uncleaved DNA left (log2),[6],0.442
same,uncleaved DNA left (log2),[7],0.135
same,uncleaved DNA left (log2),[8],0.0879
same,uncleaved DNA left (log2),[9],0.0232
same,uncleaved DNA left (log2),[10],0.154
ACCGAAG,uncleaved DNA left (log2),[1],-0.297
same,uncleaved DNA left (log2),[2],-0.157
same,uncleaved DNA left (log2),[3],-0.876
same,uncleaved DNA left (log2),[4],-0.365
same,uncleaved DNA left (log2),[5],-0.0998
same,uncleaved DNA left (log2),[6],-0.821
same,uncleaved DNA left (log2),[7],-0.0401
same,uncleaved DNA left (log2),[8],-0.111
same,uncleaved DNA left (log2),[9],-0.209
same,uncleaved DNA left (log2),[10],-0.228
ATGAACG,uncleaved DNA left (log2),[1],0.141
same,uncleaved DNA left (log2),[2],0.0512
same,uncleaved DNA left (log2),[3],-0.594
same,uncleaved DNA left (log2),[4],-0.113
same,uncleaved DNA left (log2),[5],0.151
same,uncleaved DNA left (log2),[6],-0.87
same,uncleaved DNA left (log2),[7],0.246
same,uncleaved DNA left (log2),[8],0.0263
same,uncleaved DNA left (log2),[9],-0.0624
same,uncleaved DNA left (log2),[10],0.0263
AACGCAG,uncleaved DNA left (log2),[1],0.0454
same,uncleaved DNA left (log2),[2],0.031
same,uncleaved DNA left (log2),[3],-0.28
same,uncleaved DNA left (log2),[4],-0.408
same,uncleaved DNA left (log2),[5],0.0883
same,uncleaved DNA left (log2),[6],-0.875
same,uncleaved DNA left (log2),[7],0.177
same,uncleaved DNA left (log2),[8],0.02
same,uncleaved DNA left (log2),[9],0.0678
same,uncleaved DNA left (log2),[10],0.0153
GAAAATG,uncleaved DNA left (log2),[1],0.101
same,uncleaved DNA left (log2),[2],-0.0049
same,uncleaved DNA left (log2),[3],-0.0665
same,uncleaved DNA left (log2),[4],-0.263
same,uncleaved DNA left (log2),[5],0.0447
same,uncleaved DNA left (log2),[6],-0.434
same,uncleaved DNA left (log2),[7],0.184
same,uncleaved DNA left (log2),[8],0.069
same,uncleaved DNA left (log2),[9],-0.00537
same,uncleaved DNA left (log2),[10],0.107
AAGTCGG,uncleaved DNA left (log2),[1],-0.014
same,uncleaved DNA left (log2),[2],-0.0142
same,uncleaved DNA left (log2),[3],0.29
same,uncleaved DNA left (log2),[4],0.925
same,uncleaved DNA left (log2),[5],-0.0992
same,uncleaved DNA left (log2),[6],1.11
same,uncleaved DNA left (log2),[7],0.0176
same,uncleaved DNA left (log2),[8],0.161
same,uncleaved DNA left (log2),[9],-0.076
same,uncleaved DNA left (log2),[10],0.075
ATGGCGT,uncleaved DNA left (log2),[1],0.0751
same,uncleaved DNA left (log2),[2],-0.131
same,uncleaved DNA left (log2),[3],-0.851
same,uncleaved DNA left (log2),[4],-0.303
same,uncleaved DNA left (log2),[5],-0.114
same,uncleaved DNA left (log2),[6],-0.703
same,uncleaved DNA left (log2),[7],0.0619
same,uncleaved DNA left (log2),[8],-0.0609
same,uncleaved DNA left (log2),[9],-0.118
same,uncleaved DNA left (log2),[10],-0.189
AGAACGT,uncleaved DNA left (log2),[1],0.0521
same,uncleaved DNA left (log2),[2],0.0639
same,uncleaved DNA left (log2),[3],0.135
same,uncleaved DNA left (log2),[4],0.328
same,uncleaved DNA left (log2),[5],-0.0162
same,uncleaved DNA left (log2),[6],-0.229
same,uncleaved DNA left (log2),[7],0.141
same,uncleaved DNA left (log2),[8],0.0575
same,uncleaved DNA left (log2),[9],0.133
same,uncleaved DNA left (log2),[10],0.132
TACCCGG,uncleaved DNA left (log2),[1],-0.00926
same,uncleaved DNA left (log2),[2],0.135
same,uncleaved DNA left (log2),[3],0.469
same,uncleaved DNA left (log2),[4],1.28
same,uncleaved DNA left (log2),[5],-0.0831
same,uncleaved DNA left (log2),[6],1.64
same,uncleaved DNA left (log2),[7],-0.00556
same,uncleaved DNA left (log2),[8],0.0641
same,uncleaved DNA left (log2),[9],-0.0111
same,uncleaved DNA left (log2),[10],0.0834
ACGGGGA,uncleaved DNA left (log2),[1],0.0284
same,uncleaved DNA left (log2),[2],-0.0987
same,uncleaved DNA left (log2),[3],0.649
same,uncleaved DNA left (log2),[4],0.945
same,uncleaved DNA left (log2),[5],-0.00468
same,uncleaved DNA left (log2),[6],1.58
same,uncleaved DNA left (log2),[7],0.102
same,uncleaved DNA left (log2),[8],-0.136
same,uncleaved DNA left (log2),[9],-0.222
same,uncleaved DNA left (log2),[10],-0.0819
CACTGCG,uncleaved DNA left (log2),[1],-0.0844
same,uncleaved DNA left (log2),[2],-0.0674
same,uncleaved DNA left (log2),[3],-0.516
same,uncleaved DNA left (log2),[4],1.06
same,uncleaved DNA left (log2),[5],-0.0421
same,uncleaved DNA left (log2),[6],0.296
same,uncleaved DNA left (log2),[7],0.027
same,uncleaved DNA left (log2),[8],-0.208
same,uncleaved DNA left (log2),[9],-0.284
same,uncleaved DNA left (log2),[10],-0.165
GATCTGT,uncleaved DNA left (log2),[1],0.163
same,uncleaved DNA left (log2),[2],0.0112
same,uncleaved DNA left (log2),[3],0.174
same,uncleaved DNA left (log2),[4],0.445
same,uncleaved DNA left (log2),[5],0.0746
same,uncleaved DNA left (log2),[6],1.1
same,uncleaved DNA left (log2),[7],0.0602
same,uncleaved DNA left (log2),[8],0.0849
same,uncleaved DNA left (log2),[9],0.00824
same,uncleaved DNA left (log2),[10],0.0265
